The full ranking holds about 33,000 sequences; the median of “E-score (-0.5 to 0.5)” is about -0.056, and the highest 2% start at about 0.38. This is one part of the list.
Each sequence was assayed against Stb4 (UniProt P50104) (assay: PBM E-score (8-mer binding enrichment) (E-score (-0.5 to 0.5)); higher = stronger / more preferred TF binding; most listed sequences are background and not binding sites). Details: protein concentration: 200 nM; construct: GST-DNA-binding domain.
Method in brief: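 Universal all-10-mer Agilent arrays, fresh or stripped once, were converted to double-stranded form by primer extension. GST-tagged yeast transcription factors from PURExpress in vitro transcription/translation, full-length or DNA-binding domain only, were applied at about 100-200 nM and detected with fluorescent anti-GST. After masliner normalisation, the Universal PBM Analysis Suite scored each ungapped eight-base word together with its reverse complement by E-score.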
AGCGGCCT was tested, and the “PBM E-score” value was -0.0959.
In the case of AGCTGACA, the “PBM E-score” value is reported as 0.0342.
In the case of CCGTATTC, the “PBM E-score” value is reported as 0.145.
In the case of ACCGCACA, the “PBM E-score” value is reported as -0.0505.
For AAAGGCTA, the “PBM E-score” value was -0.279.
ACCTATTC was tested, and the “PBM E-score” value was 0.0631.
For AAATCGGA, the “PBM E-score” value was 0.399.
For GTCATTGA, the “PBM E-score” value was -0.0705.
In the case of GATTCTAA, the “PBM E-score” value is reported as -0.0969.
AAGTCCGG was tested, and the “PBM E-score” value was 0.249.
AGTAAGAG was tested, and the “PBM E-score” value was -0.341.
TAAACTGA was tested, and the “PBM E-score” value was -0.0433.
For CACACCGC, the “PBM E-score” value was 0.0128.
AACATAGG was tested, and the “PBM E-score” value was -0.087.
GCGTCACA was tested, and the “PBM E-score” value was -0.168.
With ACGTCGGC the “PBM E-score” value was 0.307.
With CCTCCAAA the “PBM E-score” value was -0.211.
CAGTAACC was tested, and the “PBM E-score” value was -0.0265.
ATTCCCCA was tested, and the “PBM E-score” value was -0.258.
In the case of GGTTATCA, the “PBM E-score” value is reported as -0.00023.
For CTTCTGGC, the “PBM E-score” value was -0.255.
For AACTTTGT, the “PBM E-score” value was 0.0155.
For CACGGGCA, the “PBM E-score” value was 0.00697.
In the case of GTGGTGAA, the “PBM E-score” value is reported as 0.0732.
In the case of TGCAACCA, the “PBM E-score” value is reported as -0.28.
For CCTGGACA, the “PBM E-score” value was -0.099.
In the case of CTGCACCA, the “PBM E-score” value is reported as -0.0962.
For CCAGGCAA, the “PBM E-score” value was -0.106.
In the case of CCTAGTAC, the “PBM E-score” value is reported as -0.116.
In the case of AGCGAGAC, the “PBM E-score” value is reported as -0.0354.
With CTTTTGTA the “PBM E-score” value was -0.0656.
With ACGACGGG the “PBM E-score” value was 0.063.
For CTCATGCC, the “PBM E-score” value was 0.0136.
In the case of AGAGGTCA, the “PBM E-score” value is reported as -0.114.
In the case of CGCCGTGA, the “PBM E-score” value is reported as -0.00728.
In the case of CACGGGGC, the “PBM E-score” value is reported as -0.0507.
For ATATAATA, the “PBM E-score” value was 0.0538.
With CACGCGTC the “PBM E-score” value was 0.0968.
With GGGTAACA the “PBM E-score” value was 0.106.
With CGCCATGC the “PBM E-score” value was -0.00401.
ATCACTTC was tested, and the “PBM E-score” value was -0.00153.
For CCCTTAAC, the “PBM E-score” value was -0.182.
With AGACCCTC the “PBM E-score” value was -0.0823.
With CGCCTTAA the “PBM E-score” value was 0.0429.
For CGTGGAAG, the “PBM E-score” value was 0.0899.
With GGGGGACA the “PBM E-score” value was -0.00324.
With GGACCTAA the “PBM E-score” value was 0.138.
For CATTCACG, the “PBM E-score” value was -0.0575.
GGTGTGGA was tested, and the “PBM E-score” value was -0.00858.
With GCTCTGCC the “PBM E-score” value was -0.0979.
CCCTAGCA was tested, and the “PBM E-score” value was -0.245.
In the case of GGTTTGCA, the “PBM E-score” value is reported as -0.0305.
With AGCTTGGG the “PBM E-score” value was 0.0591.
In the case of CGACGAAG, the “PBM E-score” value is reported as 0.123.
In the case of GTGTAGAA, the “PBM E-score” value is reported as -0.201.
With CTATAGAC the “PBM E-score” value was -0.172.
In the case of ACTACCTA, the “PBM E-score” value is reported as -0.0673.
In the case of GAAATGAA, the “PBM E-score” value is reported as 0.0812.
For CAGAATGA, the “PBM E-score” value was -0.0945.
In the case of ATCCTTGC, the “PBM E-score” value is reported as -0.134.
In the case of AACCATTG, the “PBM E-score” value is reported as -0.152.
CCAAAGCA was tested, and the “PBM E-score” value was -0.15.
AATTACCC was tested, and the “PBM E-score” value was 0.269.
For CCAGAACC, the “PBM E-score” value was -0.13.
For TGGCTCAA, the “PBM E-score” value was -0.214.
AATCTGAT was tested, and the “PBM E-score” value was 0.026.
In the case of CCTCTTAC, the “PBM E-score” value is reported as -0.274.
With CGTTCAAA the “PBM E-score” value was 0.093.
In the case of CATTGCGA, the “PBM E-score” value is reported as -0.0487.
AGTTCCTG was tested, and the “PBM E-score” value was -0.14.
For CATTGAGA, the “PBM E-score” value was -0.147.
GGATTCCC was tested, and the “PBM E-score” value was 0.102.
GGGTTAAC was tested, and the “PBM E-score” value was 0.211.
For CAGCGTCA, the “PBM E-score” value was -0.229.
With CCAGGTCA the “PBM E-score” value was -0.289.
With AGCAAACA the “PBM E-score” value was -0.0803.
For CACACAGG, the “PBM E-score” value was -0.241.
AAATCGTA was tested, and the “PBM E-score” value was -0.152.
For GTGTGTGA, the “PBM E-score” value was -0.0455.
For ATGGCAAC, the “PBM E-score” value was 0.0359.
For GAATGGTA, the “PBM E-score” value was -0.0914.
For GTTCTTCA, the “PBM E-score” value was -0.0896.
For ACCAGTTA, the “PBM E-score” value was -0.0978.
In the case of CGCTGTCA, the “PBM E-score” value is reported as -0.164.
CCGTTTAA was tested, and the “PBM E-score” value was 0.084.
With AGTGTCTC the “PBM E-score” value was -0.0391.
With AATCCTCG the “PBM E-score” value was 0.0613.
GATGTTGC was tested, and the “PBM E-score” value was 0.0623.
For ACAGACTC, the “PBM E-score” value was -0.115.
ATATGGCA was tested, and the “PBM E-score” value was -0.173.
With CACCCACG the “PBM E-score” value was 0.0694.
GCTGCCAA was tested, and the “PBM E-score” value was -0.0827.
With CAGGGTCG the “PBM E-score” value was 0.149.
In the case of AAAGATCC, the “PBM E-score” value is reported as 0.166.
With AGGTTCCG the “PBM E-score” value was 0.383.
For CTCTTTTA, the “PBM E-score” value was -0.283.
TGCACAAA was tested, and the “PBM E-score” value was -0.209.
For AGCCATAC, the “PBM E-score” value was -0.279.
CCCGGATC was tested, and the “PBM E-score” value was 0.385.
CACTGCAC was tested, and the “PBM E-score” value was -0.177.
For AGTTCTTG, the “PBM E-score” value was -0.0743.
For AAGATCGT, the “PBM E-score” value was -0.19.
In the case of ATGGTAAA, the “PBM E-score” value is reported as 0.102.
For CGGAATAA, the “PBM E-score” value was 0.384.
For CTTTTTAC, the “PBM E-score” value was 0.0351.
In the case of CGGTCTAG, the “PBM E-score” value is reported as -0.0679.
GGAGGGCA was tested, and the “PBM E-score” value was -0.0606.
With CAATTTCA the “PBM E-score” value was -0.179.
In the case of AAAATACG, the “PBM E-score” value is reported as 0.0442.
For GACTCTAC, the “PBM E-score” value was -0.197.
For CAGTACTG, the “PBM E-score” value was -0.158.
With ATGGATGC the “PBM E-score” value was -0.153.
For ATTAACCG, the “PBM E-score” value was 0.413.
In the case of TACTGGAA, the “PBM E-score” value is reported as -0.0722.
In the case of AAGGGGGG, the “PBM E-score” value is reported as -0.234.
For ACTAGGGC, the “PBM E-score” value was -0.201.
ATCCAAAG was tested, and the “PBM E-score” value was -0.22.
In the case of CGCCGCCG, the “PBM E-score” value is reported as 0.249.
With CACAGCGC the “PBM E-score” value was -0.0634.
For GTCCTAAC, the “PBM E-score” value was -0.16.
In the case of CAATCGTA, the “PBM E-score” value is reported as -0.191.
With ACTTCCCC the “PBM E-score” value was -0.111.
For TTCGACAA, the “PBM E-score” value was -0.243.
With ACGTGCAT the “PBM E-score” value was -0.301.
For CTAGCACA, the “PBM E-score” value was -0.0883.
In the case of CGAGTAAC, the “PBM E-score” value is reported as 0.166.
For CCCCAACG, the “PBM E-score” value was -0.229.
With GTGTATCA the “PBM E-score” value was 0.0958.
In the case of GGACCCTA, the “PBM E-score” value is reported as -0.144.
In the case of GCTGCGGA, the “PBM E-score” value is reported as 0.152.
With CAGCACAC the “PBM E-score” value was -0.157.
In the case of ACAACAAG, the “PBM E-score” value is reported as -0.196.
AAGTTAGG was tested, and the “PBM E-score” value was 0.0911.
ACTCCATC was tested, and the “PBM E-score” value was 0.182.
In the case of AGTGTCAG, the “PBM E-score” value is reported as -0.286.
In the case of CTTAGGGA, the “PBM E-score” value is reported as -0.165.
In the case of ACTCGTCA, the “PBM E-score” value is reported as -0.167.
ATTTACAA was tested, and the “PBM E-score” value was -0.0769.
For TCCGTCAA, the “PBM E-score” value was 0.25.
In the case of ATAACTTG, the “PBM E-score” value is reported as -0.227.
For AATTTCAG, the “PBM E-score” value was -0.327.
AATAACCG was tested, and the “PBM E-score” value was 0.289.
For CCTTGCCC, the “PBM E-score” value was -0.045.
In the case of AAAACTTA, the “PBM E-score” value is reported as 0.114.
With AGCCAAGG the “PBM E-score” value was -0.246.
CTAGTCGC was tested, and the “PBM E-score” value was -0.225.
For CAGGAACA, the “PBM E-score” value was -0.199.
In the case of CTAGACAA, the “PBM E-score” value is reported as -0.104.
For AACTAGCC, the “PBM E-score” value was -0.0172.
In the case of GAAGCGGC, the “PBM E-score” value is reported as -0.00439.
GACGTGAA was tested, and the “PBM E-score” value was -0.0204.
For AGGGGGGC, the “PBM E-score” value was -0.0911.
For ACGGCCCC, the “PBM E-score” value was -0.209.
With ACAGCAAG the “PBM E-score” value was -0.159.
In the case of CAACGTGA, the “PBM E-score” value is reported as -0.18.
ATGATGCG was tested, and the “PBM E-score” value was -0.113.
For CCGCGCCG, the “PBM E-score” value was 0.328.
For CCCGAGTC, the “PBM E-score” value was 0.395.
With CACACCAC the “PBM E-score” value was -0.0063.
For AATCCTTC, the “PBM E-score” value was 0.00569.
For TACGTTCA, the “PBM E-score” value was -0.336.
With AAACTGCG the “PBM E-score” value was -0.144.
ATGCGCGG was tested, and the “PBM E-score” value was 0.219.
With GTTTGTTA the “PBM E-score” value was -0.0446.
With ATGGCAGA the “PBM E-score” value was -0.0535.
For ATTGATCG, the “PBM E-score” value was 0.0261.
With TACATATA the “PBM E-score” value was -0.00593.
In the case of CCATCTTC, the “PBM E-score” value is reported as 0.00288.
For TCACAGGA, the “PBM E-score” value was -0.213.
In the case of TGTTGTAA, the “PBM E-score” value is reported as -0.0379.
In the case of AGACTAGA, the “PBM E-score” value is reported as -0.168.
With GGTCCGAA the “PBM E-score” value was 0.416.

From the supplement of paper PMC3334620
